The campaign covered roughly 45,000 compounds. About 65 (0.1%) were called active. Calls come from the whole dose curve; as a rule, active = well fitted activation curve with a large enough effect; inconclusive = small, poorly fitted or top-dose-only effect; inactive = no such curve, though single readings can be large or run the other way. The list shows a part of the results.
What follows are molecules tested against Galactocerebrosidase (Homo sapiens) (UniProt P54803) (assay: A Novel Cell-Based Assay to Identify Small Molecules for B -Galactocerebrosidase). Conditions: 145M-Twi-hGALC-G270D cells (Twitcher mouse brain line with human GALC G270D), HMU-beta-Gal fluorescence, 48 h; series mostly up to 57.5 µM; activation: at the top concentration.
Procedure, shortened: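 Brain-derived Twitcher mouse 145M-Twi cells stably expressing human GALC-G270D or wild-type GALC, treated live, then residual GALC activity read by fluorescence of HMU-b-Gal substrate (0.1 mM final) in citrate-phosphate buffer pH 5.2 with sodium taurocholate. Signal increase indicates enhancement.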
Note: 0% is about no effect; nearly all actives have a fitted effect of over 65% in size.

Sequence of UniProt P54803 (P54803 whole entry, looked up): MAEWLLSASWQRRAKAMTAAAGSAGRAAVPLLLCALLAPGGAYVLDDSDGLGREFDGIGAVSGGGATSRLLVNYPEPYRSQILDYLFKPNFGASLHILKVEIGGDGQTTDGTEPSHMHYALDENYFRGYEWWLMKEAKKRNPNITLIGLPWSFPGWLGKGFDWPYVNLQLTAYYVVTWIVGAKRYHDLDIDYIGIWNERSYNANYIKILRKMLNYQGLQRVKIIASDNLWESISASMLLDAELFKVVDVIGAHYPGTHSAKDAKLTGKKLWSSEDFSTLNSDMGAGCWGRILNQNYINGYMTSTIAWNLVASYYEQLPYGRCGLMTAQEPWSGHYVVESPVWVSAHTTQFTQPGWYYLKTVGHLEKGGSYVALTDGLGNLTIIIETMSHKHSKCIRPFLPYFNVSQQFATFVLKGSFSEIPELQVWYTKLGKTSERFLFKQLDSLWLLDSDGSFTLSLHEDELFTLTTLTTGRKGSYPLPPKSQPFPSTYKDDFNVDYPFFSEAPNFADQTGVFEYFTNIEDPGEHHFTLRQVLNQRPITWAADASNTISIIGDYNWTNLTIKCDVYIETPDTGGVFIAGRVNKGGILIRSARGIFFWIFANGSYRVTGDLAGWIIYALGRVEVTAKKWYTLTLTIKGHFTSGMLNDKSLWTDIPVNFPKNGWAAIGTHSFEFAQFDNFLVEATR

activation, inactive:
CCOc1ccc(NC(=O)CSc2nnc(CNC(=O)c3c(F)cccc3Cl)o2)cc1 -16.1%
CCc1ccc(-c2[nH]nc3nc(-c4ccc(OC)cc4)cc(C(=O)NCCc4ccc(OC)c(OC)c4)c23)cc1 -2.61%
CCc1ccc(NCc2cccn2-c2nnc(N3CCCCCC3)s2)cc1 -37.8%
CCN1CCN(c2ncc3c(n2)CCN(Cc2ccc(Br)s2)C3)CC1 -12.2%
COC(=O)c1ccc(Cl)cc1NC(=O)N(Cc1ccc(C)o1)C1CCN(C(C)=O)CC1 -10%
COc1ccc(C(=O)NCC2(N3CCN(C)CC3)CCCCC2)cc1 -14.2%
COc1ccc(C)cc1NS(=O)(=O)c1ccc2c(c1)n(C)c(=O)n2C -11%
CCC(CC)c1nn2c(=O)cc(COc3ccc(NC(=O)c4cccc(Cl)c4)cc3)nc2s1 -0.619%
CCC(C)NC(=O)c1ccc2c(=O)n3c(nc2c1)CCCCC3 (configuration not stated) -1.89%
Cc1ccc2c(c1)N(C(=O)NCc1ccccc1)CCO2 -17.8%
Cc1ccc(NC(=O)Cn2nnc3sc(-c4ccccc4)cc3c2=O)cc1Cl -9.29%
Cc1nnc2c(Nc3cccc(O)c3)nc3ccccc3n12 -14.8%
CCn1c(=O)c(=O)n(CC)c2cc(N3CCCCC3)c(NC(=O)c3cccc(F)c3)cc21 -19%
CCCN1Cc2cccc(C(=O)Nc3cc(C)cc(C)c3)c2C1=O -8.48%
CC(=O)Nc1ccc(C)cc1-c1nc2ccccc2n(CC(=O)Nc2cc(Cl)ccc2C)c1=O -11.3%
COc1ccc(NC(=O)Cn2c(=O)n(Cc3ccc(C(=O)NCc4ccccc4Cl)cc3)c(=O)c3ccccc32)cc1OC 1.25%
COc1ccc(NC(=O)CSc2nc(-c3ccco3)cc(C(F)(F)F)n2)cc1 8.11%
O=C1c2cccc3c2[C@H](CCC3)CN1[C@@H]1CN2CCC1CC2 -10.5%
COc1ccc(Cl)cc1NC(=O)CCC(=O)N1CCOc2ccccc21 -9.45%
COc1ccccc1C(=O)Nc1nc2nc(C)cc(=O)n2[nH]1 -5.17%
CCOC(=O)c1cccc(NC(=O)CCc2nc3cccnc3n2-c2ccccc2)c1 -9.45%
CCOc1ccc(NC(=O)C2(c3cccs3)CCOCC2)cc1 -14.6%
Cc1cc(C)c2sc(NC(=O)c3ccc(S(=O)(=O)N4CCCC4)cc3)nc2c1 -13.8%
CNC(=O)Oc1ccc2c(c1)[C@]1(C)CCN(C)[C@@H]1N2C -5.98%
CCOC(=O)c1c(C)[nH]c(CCC(=O)Nc2cc(Cl)ccc2OC)c1C -13%
O=C(O)CSCC(=O)NC1CCSC1=O (configuration not stated) -12.5%
CCOC(=O)c1c(C)oc2ccc(N(C(=O)c3ccncc3)S(=O)(=O)c3ccc(CC)cc3)cc12 -41.3%
COc1ccc(OC)c(S(=O)(=O)Nc2ccc3c(c2)n(C)c(=O)n3C)c1 0.952%
O=C(CN1C(=O)COc2ccc(S(=O)(=O)NC3CCCC3)cc21)Nc1ccc(Cl)cc1F -26.7%
Cc1ccc(S(=O)(=O)N2CC=C(c3c(C)n(CC(=O)N4CCCC4)c4ccccc34)CC2)cc1C -30.5%
Cc1sc(-n2cccc2)c(C(C)NC(=O)Nc2cccc(C(F)(F)F)c2)c1C (configuration not stated) -5.48%
COc1cc(OC)cc(C(=O)NCCc2csc3nc(-c4ccccc4F)nn23)c1 -4.4%
COCCOCC(OC)OC -9.18%
CN(C)S(=O)(=O)N(CC(=O)Nc1ccc(C(F)(F)F)cc1)c1ccccc1 -6.6%
Cc1ccc(OCCSc2nc3ccc(NC(=O)c4cccs4)cc3s2)cc1 19.7%
Cc1nc(N2CCOCC2)c2c(C(=O)NCc3ccc(Cl)cc3)c(C)oc2n1 -17.7%
CCc1ccc(NC(=O)c2nc3nc(C)cc(C(F)F)n3n2)cc1 -5.58%
COc1ccc(CNC(=O)c2ccc3c(c2)N(Cc2cc(C)ccc2C)C(=O)CS3)cc1 -1.18%
COc1ccc(CNc2nc(-c3ccc(Cl)cc3)nn2S(=O)(=O)c2ccc(C)cc2)cc1 -25.9%
COc1ccccc1CNS(=O)(=O)c1cc(Br)cc2c1N(C(=O)C1CC1)CC2 -0.194%
CCOc1cccc(C(=O)N(Cc2ccc(C)o2)C2CCS(=O)(=O)C2)c1 (configuration not stated) -12.3%
O=C(CCC(=O)N1CCSc2ccccc21)Nc1ccc(Cl)cc1 -12.7%
CCC(CC)c1nn2c(=O)cc(COc3ccc(NC(=O)c4cccc(C)c4)cc3)nc2s1 -19.3%
COc1cccc(CNC(=O)c2cc(-c3ccc(Cl)cc3)n[nH]2)c1 -8.76%
COc1ccccc1-c1nn2c(=O)cc(CN3CCN(C(=O)Nc4ccc(C)cc4Cl)CC3)nc2s1 -15.4%
CCOc1ccc(-n2c(=O)c3c(C)c(C)sc3n(CC(=O)C(C)(C)C)c2=O)cc1 -7.23%
O=c1cc(COc2ccc(Cl)cc2Cl)nc2scc(-c3ccccc3)n12 -0.435%
CC(CNC(=O)c1ccc2c(c1)nc1n2CCCCC1)c1ccccc1 (configuration not stated) -9.46%
CCOc1ccc(CC(=O)NC2CC(=O)N(c3cccc(F)c3)C2)cc1 (configuration not stated) -8.85%
COc1ccccc1OCC(=O)N(Cc1ccco1)Cc1ccccc1F -14.1%
Cc1cc(C)cc(NC(=O)CCc2c(C)nc3nc(CNC(=O)c4cccc(F)c4)nn3c2C)c1 -16.7%
COCCCNc1nc2c(c(=O)n(Cc3ccc(F)cc3)c(=O)n2C)n1C -11.5%
CCCCC(=O)Nc1nnc(S(=O)(=O)N(C)Cc2ccc(Cl)cc2)s1 -7.09%
COc1ccc(N(Cc2cccs2)C(=O)c2ccco2)cc1 -10.7%
CC(=O)c1ccc(N2CCN(C(=O)c3cn(C)c(=O)c4c3c3ccccc3n4C)CC2)cc1 -10.4%
Cc1ccc(-n2c(=O)c3c(c4cc(C)ccc4n3C)n(CC(=O)Nc3ccc(F)cc3)c2=O)cc1 -3.75%
CCS(=O)(=O)N1CCc2cc(C(=O)Nc3ccc(Br)cc3F)ccc21 -31.4%
CCc1cccc(C)c1NC(=O)c1ccc2c(c1)CCN2S(=O)(=O)c1ccc(Cl)cc1 -9.99%
COc1cc(C(=O)NCC(c2ccco2)S(=O)(=O)c2cccs2)cc(OC)c1OC (configuration not stated) -0.286%
COc1ccc(CNC(=O)COCc2cc(-c3ccc4c(c3)OCO4)on2)cc1 -6.05%
Cc1c(Cl)cccc1Nc1nn2c(=O)c3ccccc3nc2s1 -9.44%
COC(=O)c1cc2oc3ccccc3c2n1Cc1ccc(C)cc1 2.1%
CCOC(=O)c1cc2c(=O)n3ccccc3nc2n(Cc2ccco2)c1=NC(=O)c1ccccc1Br -0.534%
COc1ccc(OC)c(S(=O)(=O)NCC(c2ccc(N(C)C)cc2)N2CCOCC2)c1 (configuration not stated) -22.2%
COC(=O)c1cc(NC(=O)c2cc3c(-c4ccccc4F)nn(C)c3s2)cc(C(=O)OC)c1 4.37%
COc1ccc(N2CCN(S(=O)(=O)c3ccc(CC(C)C)cc3)CC2)cc1 -13%
O=C(NCC(c1ccco1)S(=O)(=O)c1cccs1)c1ccccc1 (configuration not stated) -17.6%
CCOC(=O)c1cccc(NC(=O)C(C)n2nc(C)c3c(C)n(-c4ccccc4)nc3c2=O)c1 (configuration not stated) -13%
COc1ccc(-c2[nH]c(-c3ccc(O)cc3)nc2-c2ccccc2)cc1 -40.2%
Cc1ccc([N+](=O)[O-])cc1NC(=O)CN(c1ccccc1)S(=O)(=O)N(C)C 1.22%
Cc1oc(-c2ccccc2F)nc1CS(=O)(=O)CC(=O)N1CCN(c2ccccc2)CC1 -13.3%
CCOc1ccc(NC(=O)Cn2c(=O)n(CCCC(=O)NCCc3ccc(Cl)cc3)c(=O)c3ccccc32)cc1 -5.92%
Cc1ccccc1-c1noc(-c2ccc(NCC3CCCO3)c([N+](=O)[O-])c2)n1 (configuration not stated) -14%
Cc1ccc(Cn2c(SCC(=O)NCc3ccccc3)nc3ccsc3c2=O)cc1 -13.2%
Cc1cccc(N2CCN(S(=O)(=O)c3ccc(-c4cnc(C5CC5)o4)cc3)CC2)c1C -6.71%
CCOC(=O)C1CCCN(CC(=O)N2CCCc3c2c(=O)oc2ccc(OCc4ccccc4)cc32)C1 (configuration not stated) -10.8%
COc1cc(OC)cc(C(=O)Nc2cc(-c3nc4cc(Cl)ccc4o3)ccc2Cl)c1 -1.39%
CCN1CCN(CCCNC(=O)c2cc3c(s2)-c2ccccc2OC3)CC1 -9.74%
O=C(CN1C(=O)COc2ccc(S(=O)(=O)N3CCCC3)cc21)N1CCN(c2ccccc2)CC1 22.6%
O=C(CSc1ncc2c(n1)-c1ccc(Cl)cc1N(Cc1ccccc1)S2(=O)=O)Nc1ccc(F)c(F)c1 -12.3%
COc1ccc2c(Sc3ccccc3)c(C(=O)NCCc3ccc(Cl)cc3)[nH]c2c1 -15.3%
COc1ccc(CNC(=O)Nc2ccc3c(c2)N(C)C(=O)c2ccccc2S3)cc1 -43.8%
CC(=O)C1=C(c2ccc(C)cc2)N(C(C)=O)n2c(nnc2C2CCCCC2)S1 -8%
CCOc1ccc(C2C(C(N)=O)=C(C)Nc3nc(SCc4ccccc4)nn32)cc1 (configuration not stated) 10.5%
O=C(NCc1ccc2c(c1)CCN2C(=O)c1ccccc1)c1cc2ccccc2[nH]1 -16.2%
CCc1ccc(NC(=O)c2sc3ncnc(N(C)C4CCCCC4)c3c2C)cc1 -16.9%
O=C(c1cccs1)c1cn(CCOc2ccccc2F)c2ccccc12 -31.3%
COc1cccc2cc(-c3nc(Nc4cccc(C)c4)sc3C)c(=O)oc12 -4.66%
COc1ccc(-c2nnc(SCc3cc(=O)c4cc(C)cc(C)c4[nH]3)n2C)cc1 1.91%
COc1cccc(CN2C(=O)c3ccccc3Sc3ccc(C(=O)N(C)Cc4ccccc4)cc32)c1 -14.3%
COc1ccccc1NC(=O)c1cc2ccc3cccnc3c2[nH]1 -19.8%
CCCCNC(=O)CSc1nc2ccccc2nc1Cc1ccc(C)cc1 -6.5%
CCOC(=O)c1ccccc1NC(=O)c1c2c(nc3ccccc13)C(=O)N(C1CCCCC1)C2 -1.64%
CC(C)c1ccc(S(=O)(=O)c2nnn3c2nc(N2CCN(C)CC2)c2sccc23)cc1 -3.56%
COc1cc(C2c3c(-c4ccccc4O)n[nH]c3C(=O)N2CCO)ccc1OCc1ccccc1 (configuration not stated) -7.77%
CC(=O)c1cccc(NC(=O)c2nc3ccccc3n(C)c2=O)c1 -2.81%
COc1cccc(CNC(=O)c2ccc3nc(-c4ccc(F)cc4)c(-c4ccc(F)cc4)nc3c2)c1 -1.32%

Source: PubChem BioAssay AID1159614 (National Center for Advancing Translational Sciences (NCATS), 2016)
